# Measured values from the RNAGym collection of RNA variant scans (doi:10.1093/nar/gkz1192).
# Read counts are not given, so values of variants with three or more changes are uncertain.
# B1: CPEB3 Ribozyme (parent)
# chain: UAACAGGGGGCCACAGCAGAAGCGUUCACGUCGCAGCCCCUGUCAGAUUCUGGUGAAUCUGCGAAUUCUGCUGUAUAUCUC
# Variants of: B1
# Experiment: self-cleavage, relative activity (ratio to wild type); higher = more cleavage; in vitro, sequencing
# Method in brief: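 Relative activity was defined as the cleaved/total read fraction for a variant divided by the same fraction for the unmutated ribozyme. CPEB3 self-cleaving ribozyme libraries were made by rounds of error-prone PCR, barcoded, and transcribed in vitro with T7 RNA polymerase for 5 hours at 37°C, and cleavage ran through transcription plus a 15 min DNase I step before EDTA. Illumina sequencing of template-switched reverse transcripts gave the reads, and DNA sequencing mapped the barcodes. Averages come from three batches, using variants with at least 5 reads.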
row,Variant,self-cleavage
1,A18G A45U U66C,0.27
2,A18G A20G G33A A65U,0.21
3,A18G U48C A77G,0.7
4,A18C A45G A64U U74A,0.31
5,A18C A75U U78C,0.28
6,A18G U25A G33A,0
7,C17G A47G U69C U78C,0.04
8,A18G A45U U48C U51A U54A A56G U60C,0.23
9,A18C U49A U54C A75U,0.17
10,A18G U41C U51C A77U,0.67
11,A18G U48C A75G,0.17
12,A18G U49C U66C,0.17
13,C17G U26C A47G A64G,0.09
14,A18G G22C A45U G52U,0.09
15,A18G U25C A35G U69G U78A,0.17
16,A18G U48A U66C A75G,0.13
17,C17U A18G C29A C34U U72A U76C U80A,0.05
18,A18G A20U C40U U51C G63U A65G U72C,0.06
19,A18G U31C A35G,0.5
20,A18G U25A U49C U78C,0.2
21,A18G U25A A35G A56U,0.1
22,A18G U41C U66C U72C,0.22
23,A18G A45U U51A A64U U72C,0.23
24,A18G G33C U41C A47G U51A A57U U78C,0.06

row,Variant,self-cleavage
1,A18G U31C U49C A57U,0.11
2,A18G C23A U26A A65G U72G,0.13
3,A18G A56U U72C,0.38
4,A18G A28C U80C,0.16
5,A18G U43A U78A,0.77
6,A18C G33C C40A A47G A56U,0.21
7,C17U A18U G33A A47C A65U U67C U80C,0.05
8,A18G A20G A28G A35U U41A A45U U67C,0.02
9,C17G U26C U31A U58A,0.19
10,A18G U41C U78A,0.74
11,C17U U43A G53U U74A U78C,1.28
12,A18G A45U U78C,0.34
13,A18G A20U C32U U58C,0.07
14,A18C A35G A56G U67C U72C U74A,0.17
15,C17G U26A U51C U60C,0.06
16,A18G A21G U26A U67A,0.37
17,A18G A64G U69C,1.04
18,A18G A45G U58C U69A,0.29
19,A18G U26C A45G U76A,0.33
20,C17U A28G A64G,0.13
21,A18G U41C U43C,0.41
22,A18G U26G A28G U41G,0.45
23,A18G C32A A45G U49A U51A A64U,0.08
24,A18G A21C U49G,0.11

row,Variant,self-cleavage
1,A18G U25C A47G,0.28
2,A18G U26C U41A,0.05
3,A18G A35G U41A C59A U67C A77G U80C,0.07
4,A18C U31A G33A U41C U72A,0.07
5,A18G A35U U51C U69C,0.54
6,A18G C23U G46A,0.33
7,A18G U25G U41C C44U U60A,0.05
8,A18G A20G A21U U43A C50A,0.11
9,A18G A20U A35G U49A G52A,0.26
10,A18G U48C U60G U78C,0.15
11,A18G A21G C23U A28U,0.25
12,A18G A28C A35U U41A A45U,0.13
13,A18C U41A U72A,0.05
14,A18G A65C U80A,0.29
15,A18G U43A U49A C50U,0.31
16,A18G G52A G55A A64U,0.14
17,A18G G53A U60C,0.28
18,A18G U51C G52U C68U,0.43
19,A18G C23A A56G U72C,0.22
20,A18G U26C U51C,0.13
21,A18G G24A U25C U51G U60A U80C,0.05
22,A18C U26C A56U A65G U80A,0.13
23,A18G U43C C50U U80C,0.24
24,C17G A28C G33U U41A U72G U80A,0.05

row,Variant,self-cleavage
1,A18G A20G C29U U78A,0.07
2,C17U A45U U67A,0.16
3,C17A U25C U43C A56G A65U U76A,0.05
4,A18G U25C A28G C44U,0.33
5,A18G U48C U54C A64G U78C,0.09
6,A18G U43C U51C C62G,0.19
7,A18G A45G U60A U80G,0.19
8,A18G A20C U41A,0.35
9,A18G U41A A45U A64G,0.09
10,A18G A20C A28C U80C,0.05
11,C17U U26A U31A C32U A57U U58C U60C,0.03
12,A18G A35G A56U U67C C71U,0.16
13,A18G U51C A77U,0.6
14,A18G A21G A35G C59A U67C,0.16
15,A18G U25C U43C U78C U80C,0.1
16,C17U G24C A28G U43C U80A,0.08
17,A18C A35G A64G,0.56
18,C17U A20C A64G U69C,0.14
19,A18G U48A U49A U58G,0.42
20,A18G C40U U58C,0.06
21,A18G A45G U67A,0.33
22,A18G A21G U51G C62U U78C,0.19
23,A18G U26A A35U U43C,0.24
24,A18G A65G U72C,0.26

row,Variant,self-cleavage
1,A18C U31C A45G A64U U74C U76A,0.39
2,C17G A18G A21G A35U,0.28
3,A18G A20U A57G U58A,0.09
4,A18G C40U U43C U54C A56U,0.17
5,C17U G36U A56U U72C,0.09
6,A18G A20U U26C C39A,0.13
7,A18C U25G U31A U49A A64U U66C,0.1
8,A18G A77C U80G,0.77
9,C17U A35G U41A A45G A47G U58A A75G,0.05
10,A18G U49C A56G C59U U80A,0.5
11,A18G A56G A75G,0.32
12,A18G A56G A75U,0.7
13,A18G C23U G46A U60C,0.06
14,C17U G24C A28U U51A,0.12
15,A18C A45U U49C U54G U74C,0.04
16,A18G U31C U60C C62U,0.12
17,C17A U25C U41C U51C U54A,0.24
18,A18G A28U A57U,0.25
19,A18G U25C G36C U41A A57U,0.07
20,C17U A18U U51G,0.38
21,A18G A21U U78A,0.42
22,A18G U41C A45C G46C U67C U72C,0.12
23,A18G A35G U41C A45U U72C,0.38
24,A18C G36A U80C,0.16

row,Variant,self-cleavage
1,A18C A20G U31C U72A,0.26
2,A18G C34U U41C U43A A65G U67C,0.05
3,A18G C32U U54A A57G U78C,0.07
4,C17G A45G A65U,0.29
5,A18G C39A U43C U72C,0.04
6,A18G U25C A57G A64G,0.24
7,A18G C38U G42A U43C A45G U48A,0
8,A18G U41C A45G U67A U74A,0.31
9,A18G U31C U48C U58C A65G U69A G70A,0.01
10,A18G U43C U58C U74A,0.23
11,A18C C23U A47G,0.18
12,A18C A28G A47G A57G U66C U78C,0.1
13,A18G A20G C34G U80C,0.39
14,A18G U26C U31C C44G,0.34
15,A18C U25C U51A G55A A57U,0.07
16,C17U C62U U67C,0.13
17,A18G A28U U49C U54C,0.38
18,A18G U25A A45U A56G,0.07
19,C17G A47G U51C U58C,0.23
20,A18G G24A U41G A45U,0.38
21,A18C G42U A57G U66A,0.16
22,A18C A45G U60A,0.13
23,A18G A20U U74A,0.43
24,A18G G33A A35G A47G U51C A56C,0.29

row,Variant,self-cleavage
1,A18G A20G U51C,0.25
2,C17G U72C U80C,0.78
3,C17U U41C U49C A65G U69G,0.08
4,A18C A47G C62U U67C,0.15
5,A18G A20U C44U A45G U60A U67C,0.11
6,A18G U43A C50U U74A U78C,0.78
7,A18G C34A A56G,0.55
8,A18G C23U U26C G53A U80G,0.06
9,A18C U31C U41A U49G,0.08
10,A18G C44A G53A U60A A65G U72C,0.07
11,A18G U31A U67C,0.11
12,A18C A28G C40A U41C U43C U60C A65G,0.4
13,A18G C27A U67A,0.12
14,A18G A28G U67C,0.12
15,A18G U41A U43A U58A U67C U69A U80C,0.03
16,A18G U26C A28G U41C U49A C59U,0.02
17,A18C C23U G52A A65U,0.05
18,A18G U41A G55A U66C U72C,0.41
19,A18G G55A U72C,0.29
20,A18G G30U A47U,0.21
21,A18C U67A U72C U78C,0.11
22,A18G A56G U58C,0.24
23,A18G A57U U66G,0.19
